The source gives no read counts; variants with many changes may rest on few reads.

B1: LINE1-mini (parent)
chain: GGCAGAGCUCAACACAGCGUGGCAAAGUGGCUGUGGCUAGACUGCC

The variants in this data set derive from B1. As to the kind of experiment: self-cleavage, relative activity (ratio to wild type); higher = more cleavage; in vitro, sequencing; the parent is a self-cleaving ribozyme.
On to GGCAGAGCUCUACACAGCGUGGCCAAGUGUCUGUGGCUAGACUGCC, for which the self-cleavage came to 0.01.

Regarding GGCAGAGCUCUACACAGCGUGGCAAAGUGGCUGGUGCUAGACUGCC, the self-cleavage was found to be 0.03.

Take GGCAGAGCUCUACACAGUCUGGCAAAGUGGCUGUGGCUAGACUCCC: the self-cleavage was found to be 0.04. Turning to GGCAGAGCUCUACACAGAGUGGCAAAGUGGCUGUAGCUAGUCUGCC, the self-cleavage came out at 0.02.

On to GGCAGAGCUCUACACAGCGUGGCAUAGUGGCUGUGGCUACACUGCC, for which the self-cleavage was found to be 0.04.

Turning to GGCAGAGCUCUACACAUCGUGGCAUAGUAGCUGUGGCUAGACUGCC, the self-cleavage was 0.05. On to GGCAGAGCUCUAAACAGCGUGGCAAAGUGGCUGUGGCUAGACCGCC, for which the self-cleavage turned out to be 0.01. As for GGCAGAGCUCUACACAGCGUGGCAAAGCAGCUGUUGCUAGACUGCC, the self-cleavage was 0.01. As to GGCAGAGCUCACCACUGCGUGGCAAAGUGGCUGUGGCUAGACUUCC, the self-cleavage was determined as 0.01. With GGCAGAGCUCUACACAGCGUGGCAAAGUGGCUGCGGCUAGACUACC, the self-cleavage was found to be 0.03. As for GGCAGAGCUCUACACAGCGUGGCAAAGAGGCUGUGGCUAAACUGCC, the self-cleavage worked out at 0.01.

Regarding GGCAGAGCUCACCGCAGUGUGGCAAAGUGGCUGUGGCUAGACUGCC, the self-cleavage turned out to be 0.01. For the variant GGCAGAGCUCUACACAGCGUGGCAAAUUGGCUGUGGCUAUACUGCC, the self-cleavage was 0.02. For the variant GGCAGAGCUCUAAACAGCGUGGCAAAGUUGCUGUGGUUAGACUGCC, the self-cleavage amounted to 0.01. In the case of GGCAGAGCUCUACACAGCGUGGAAAAGUGUCUGUGGCUAGACUGCC, the self-cleavage was found to be 0.02. As to GGCAGAGCUCUACACAGCGUGGCAAAUUGCCUGUGGCUAGACUGCC, the self-cleavage was 0.07.

With GGCAGAGCUCACAACAUCGUGGCAAAGUGGCUGUGGCUAGACUGUC, the self-cleavage was 0. On to GGCAGAGCUCUACACAGCGUGGAAAAGUGGCUGUGGCUAAACUGCC, for which the self-cleavage was determined as 0.02. With GGCAGAGCUCACAACAGCGUGGCGAAGUGGCUGUGGCUAGACUGGC, the self-cleavage amounted to 0.03. Regarding GGCAGAGCUCUACACAGCGUGGCAAAAUGGCUGUGACUAGACUGCC, the self-cleavage turned out to be 0.03. In the case of GGCAGAGCUCUACACAGCGUGGCCAAGUGGCUUUGCCUGGACUGCC, the self-cleavage turned out to be 0. For the variant GGCAGAGCUCUACACAGCGUGGCAAAGUGGCUCCGGCCAGACUGCC, the self-cleavage is 0.02.

With GGCAGAGCUCUACACAGCGUGGCAAAGUGGCUGUAGCGAGACUGCC, the self-cleavage came out at 0.02. Take GGCAGAGCUCUACACAGCGUGGCAACGUGGCUGUGGCUUGACGGCC: the self-cleavage worked out at 0.

Take GGCAGAGCUCACCGCAGCGUGGCAAAGUGGCUGUGGAUGGACUGCC: the self-cleavage turned out to be 0.02.

Regarding GGCAGAGCUCUACACAGCGGGGCAAAGUGGCUGUGGCUAGAAUGCC, the self-cleavage is 0.01.

GGCAGAGCUCUACACAGCGUGGCAAAGUGGCUGUGGCGAUACUGCC: the self-cleavage worked out at 0.06. With GGCAGAGCUCACCACAGCGUGGCAAUGUGGCUGUGUCUAGACUGCU, the self-cleavage came to 0. Take GGCAGAGCUCACAACAGCGUGGCACAGUGGCUGUGGCUGGAUUGCU: the self-cleavage turned out to be 0.03. Turning to GGCAGAGCUCUACACAGCGUGGCAAAGUGCCUGUGGCUAGACCGCC, the self-cleavage worked out at 0.01.

Take GGCAGAGCUCUACACAGCGUGUCAAAGUGGCUGUGGCUAGAAUGCC: the self-cleavage was found to be 0.02.

On to GGCAGAGCUCUACACAGCGUCGUAAAGUGGCUGUGGCUAAAAUGCC, for which the self-cleavage was 0. As to GGCAGAGCUCUAAACAGCGUGGUCAAGUGGCUUUGGCUAGACUGCC, the self-cleavage turned out to be 0.

As for GGCAGAGCUCUACACACCGCGGCAAAGUGGCUGUGGUUAGACUGCC, the self-cleavage is 0.01. Take GGCAGAGCUCACCACAGCGUGGCAGAGUGGUUGUGGCUAGGCUGCC: the self-cleavage was 0. Then GGCAGAGCUCUACACAGCGUGGCUAACUGGCUGUGGCUAGACUGCC, with 0.11.

Turning to GGCAGAGCUCACCACAGCGUGGCAUAGUGGCUGUGGCUAGGCUGCC, the self-cleavage was found to be 0.06. Take GGCAGAGCUCUACACAGCGUGUCACAGUGGCUGUGGCUAGACUGCC: the self-cleavage was determined as 0.04. Next, GGCAGAGCUCUACACAGCGUGGCAAAGUGUCCGUGGUUAGACUGCC: 0.04; GGCAGAGCUCUACACAGCGAGGCAAAGUGGCUGUGGGUAGACUGCC: 0.

Consider GGCAGAGCUCACCACUGCGUGGCAAAGUGGCUGUUGUUAGACUGCC, for which the self-cleavage is 0. On to GGCAGAGCUCUACACAGCCUGGCAAAGUGGCUGUGGCUAGAUUGCG, for which the self-cleavage stood at 0. GGCAGAGCUCUACACAGCGUGACAAAGCGGCUGUGGCUAGACUACC: the self-cleavage stood at 0.04.

In the case of GGCAGAGCUCUACAUCGCAUGGAAAAGUGGCUGUGGCUAGACUGGC, the self-cleavage was determined as 0.02. Turning to GGCAGAGCUCUACACAUCGUGGCAAAGUGGCUGUGGCUAGACUACC, the self-cleavage stood at 0.3.

For the variant GGCAGAGCUCUACACAGCUUGGCAAAGUGGCUGAGGCUAGACUGCC, the self-cleavage amounted to 0.03. Take GGCAGAGCUCUACACGGCGUGGCAAAGUGGCUGUGGCUACACUGCC: the self-cleavage is 0.01. For the variant GGCAGAGCUCUACACAGCGUGGCAAAAUGGCUGUGGCUAGCCUGCC, the self-cleavage was determined as 0.03. Regarding GGCAGAGCUCUACACAGCGUGGCAACGUGGCUGUGGCUAGAGUGCC, the self-cleavage was 0.02. On to GGCAGAGCUCUACACAGAGUGGCAAAGUGGCUGUGGCUAGACAGCC, for which the self-cleavage was found to be 0.01. In the case of GGCAGAGCUCUACACAGCGUGGCAAAGAGGCUGUGGAUAGACUGGC, the self-cleavage amounted to 0.

On to GGCAGAGCUCACCACAGCGUGGCAGAAUGGCUGUGGCAAGACUGCC, for which the self-cleavage was 0. Regarding GGCAGAGCUCUACACAGCGUGGCAAAGUGGCUGAGGCUAGACAGCC, the self-cleavage came out at 0.03. With GGCAGAGCUCUACACAGCGUGGCAAAGUGGCUGUGGUAAGACUGCC, the self-cleavage came out at 0. Take GGCAGAGCUCUACAAAGCGUUGCAAAGUGGCCGUGGCUAGAGUGCC: the self-cleavage was determined as 0.02. Then GGCAGAGCUCUACACAGCGUGGCAAAGUGGUUGUUGCUAGACUGCC, with 0.02.

The values are drawn from the RNAGym collection of RNA variant scans (doi:10.7554/elife.90254).
